# Laboratory results from PubChem BioAssay AID938 (National Center for Advancing Translational Sciences (NCATS), 2007).
# Among all 73,000 compounds or so, about 1,800 (2.5%) were called active. This list was built around the results that the source calls inconclusive (neither active nor inactive); the mix of calls is not that of the screen. Calls come from the whole dose curve; as a rule, active = well fitted activation curve with a large enough effect; inconclusive = small, poorly fitted or top-dose-only effect; inactive = no such curve, though single readings can be large or run the other way. Potencies of inconclusive entries are left out as doubtful fits.
# Experiment: qHTS Assay for Agonists of the Thyroid Stimulating Hormone Receptor: Activators of Intracellular cAMP Concentrations in Parental HEK 293; note: nearly all actives have a fitted effect of over 55% in size; for activation: % of control where 0% means no effect
# Conditions: parental HEK293 CNG cAMP sensor, membrane potential fluorescence; activation: at 57.1 µM (top of the series) unless noted
# Method in brief: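 Counterscreen for endogenous-receptor signalling: CNG-channel HEK 293 cells report cAMP rise by membrane depolarization. After 60 min dye equilibration with 100 uM RO 20-1724, compounds incubated 30 min before bottom-read fluorescence at 590 nm.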
# Potency is the fitted concentration of half-maximal effect; tags give direction and shape of the fitted curve.
Compound,activation,Potency
CN1CCN(c2cc(-c3ccccc3Cl)ncn2)CC1,inactive: -2.8%,–
COC(=O)C1C(=O)c2c([nH]c(C(=O)OC3CCCCCC3)c2C)CC1C (stereo unspecified),–,"inconclusive [activator, single point]"
CCCCC(c1nnnn1CC1CCCO1)N1CCN(c2nc3ccccc3s2)CC1 (stereo unspecified),–,"inconclusive [activator, single point]"
CCOC(=O)Cn1nnnc1CN(Cc1ccccc1)Cc1cc2cc(CC)ccc2[nH]c1=O,–,"inconclusive [activator, partial curve]"
Fc1ccc(-c2nnc3sc(C4COc5ccccc5O4)nn23)cc1 (stereo unspecified),–,active: 25.1 µM
O=C(NCc1ccco1)NCC(F)(F)F,inactive: 6.68%,–
Nc1cc(=O)[nH]c(=O)n1Cc1ccco1,–,"inconclusive [activator, single point]"
N#Cc1ccc(CN2CCCC3(CCN(C(=O)c4cccc(F)c4)CC3)C2)cc1,–,"inconclusive [activator, full curve]"
CCC(Sc1nnc(-c2ccc(C)c(Cl)c2)n1CC)C(=O)Nc1nccs1 (stereo unspecified),–,"inconclusive [activator, partial curve]"
COC(=O)CNC(=O)C1(C)C=CCN1C(=O)c1ccccc1 (stereo unspecified),inactive: 7.18%,–
C=CCC1(O)C(=O)N2C(=C1C(=O)N1CCOCC1)c1ccccc1CC2(C)C (stereo unspecified),–,"inconclusive [activator, single point]"
COC(=O)c1ccc(C2c3c(oc4cc(C)c(C)cc4c3=O)C(=O)N2CCCN(C)C)cc1 (stereo unspecified),inactive: 6.33%,–
Cc1onc(-c2c(F)cccc2Cl)c1C(=O)Nc1nc2c(s1)CCCC2,inactive: -1.82%,–
CC(=O)C(C(C)=O)c1c(Cl)c(O)c(O)c2c(C(=O)c3ccccc3)coc12,inactive: -12.5%,–
COCCn1c(=O)c(-c2ccc(F)c(F)c2)nc2cncnc21,–,"inconclusive [activator, single point]"
O=C(NC(C(=O)c1ccccc1)N1CCCCC1)c1ccccc1 (stereo unspecified),–,"inconclusive [activator, single point]"
O=C(CN(Cc1cccs1)C(=O)CSc1nnc(COc2ccccc2)o1)NC1CCCC1,–,"inconclusive [activator, single point]"
CCNC(=O)c1c(C)[nH]c(C(=O)OCC)c1C,–,"inconclusive [activator, single point]"
O=S(=O)(c1ccc(NCC2CCCCC2)nc1)N1CCOCC1,–,"inconclusive [activator, single point]"
Cn1c(=O)cc(SCC(=O)NCc2cccnc2)c2ccccc21,–,"inconclusive [activator, single point]"
Cc1cccn2c(=O)c(/C=N/O)c(N3CCCCC3)nc12,–,active: 15.8 µM

Compound,activation,Potency
CCOC(=O)c1c(NC(=O)OC)sc(C(=O)N(CC)CC)c1C,–,"inconclusive [activator, single point]"
COc1cc2c(cc1OC)CN(Cc1ccc(OC)c(C)c1OC)CC2,–,"inconclusive [activator, partial curve]"
CN(C)C(=O)c1ccc(-c2nc(N(C)C)c3ccccc3n2)cc1,inactive: -16.1%,–
COc1cccc(C(=O)Nc2c3c(nn2-c2ccccc2C)CS(=O)C3)c1OC (stereo unspecified),inactive: 7.67%,–
CC(=O)Oc1ccccc1-c1nc(C)nc(N(C)C(C)=O)n1,–,"inconclusive [activator, partial curve]"
Cc1ccc(N2C(=O)C(Cl)=C(NCCO)C2=O)c(C)c1,–,"inconclusive [activator, single point]"
COc1ccc(OCC(=O)N(C)Cc2ccccc2)cc1,inactive: 4.87%,–
Cc1ccc(C(=O)COC(=O)c2cnccn2)cc1,–,"inconclusive [activator, single point]"
O=c1c2ccccc2[nH]c(=S)n1C1CCCCC1,inactive: -6.03%,–
Oc1ccc(-c2[nH]ncc2-c2cccc3cccnc23)c(O)c1,inactive: 8.2%,–
COc1cc(-c2nnc(CSc3nc4ccccc4s3)o2)cc(OC)c1OC,–,active: 31.6 µM
Cc1nnc(SCc2ccccc2Cl)n1CC1CCCO1 (stereo unspecified),inactive: 1.64%,–
Cn1c(CNc2nc3ccccc3n2C)nc2ccccc21,inactive: 5.47%,–
CC1CC(C)CN(C(=O)COC(=O)c2cc3ccccc3cc2O)C1 (stereo unspecified),–,active: 31.6 µM
Cc1nc2sc(C(c3ccc(C(C)C)cc3)N3CCN(CCO)CC3)c(O)n2n1 (stereo unspecified),–,"inconclusive [activator, single point]"
COc1ccc(CC(=O)Nc2nc(C)cs2)cc1OC,–,"inconclusive [activator, partial curve]"
Cc1cc2c(c(C)nn2-c2ccccc2)c(=O)o1,inactive: 11.3%,–
Cn1c(=O)c2c(nc(CN3CCOCC3)n2CCc2ccccc2)n(C)c1=O,–,"inconclusive [activator, partial curve]"
Cc1ccc(O)c(NC(=O)c2cccc(S(=O)(=O)N3CCCCC3)c2)c1,–,"inconclusive [activator, single point]"
c1csc(CSc2nc3ccccc3s2)c1,inactive: 13.8%,–
COc1cccc(Cn2c(=O)c(C)nc3cnc(N4CCNCC4)nc32)c1,–,"inconclusive [activator, full curve, poor fit]"

Compound,activation,Potency
COC(=O)c1ccc(CNC(=O)CSc2nnc(COc3ccccc3)n2C)o1,–,"inconclusive [activator, single point]"
CCc1nc2ccccc2c(C(=O)OC2CCOC2=O)c1C (stereo unspecified),inactive: 8.51%,–
COC(=O)C1(CCSC)NC(c2ccco2)C2C(=O)N(C)C(=O)C21 (stereo unspecified),–,"inconclusive [activator, single point]"
COC(=O)c1cn(NC(=O)C2CCCCC2)c(=O)c2ccccc12,–,active: 12.6 µM
Nc1ncnc2c1ncn2[C@H]1O[C@@H](C(=O)O)[C@@H](O)[C@H]1O,inactive: 11.6% [at 11.4 µM],–
O=S(=O)(c1cc(Cl)ccc1Br)N1CCCCC1,–,"inconclusive [activator, single point]"
CCSc1nnc(NC(=O)CSc2nc3c(c(=O)n2-c2ccccc2OC)SCC3)s1,–,"inconclusive [activator, full curve]"
COc1cccc(OC)c1Oc1ccc(C(F)(F)F)cn1,–,"inconclusive [activator, single point]"
O=C(Nc1ccc2c(c1)OCCO2)c1ccc(S(=O)(=O)N2CCCCC2)cc1,inactive: -15.1%,–
O=C1OCCC1Sc1nnc(-c2ccccc2)o1 (stereo unspecified),inactive: 7.46%,–
O=c1[nH]c(=O)n([C@@H]2C[C@H](O)[C@H](CO)O2)cc1C(F)(F)F,inactive: 0.597% [at 25.6 µM],–
CCOC(=O)c1[nH]c2ccc(C)cc2c1NC(=O)CN1CCCCC1,inactive: 28.5%,–
O=C(CCSc1nc(-c2ccco2)cc(C(F)(F)F)n1)N1CCN(c2ccccn2)CC1,–,"inconclusive [activator, single point]"
c1ccc(-n2nnnc2NCCc2c[nH]c3ccccc23)cc1,inactive: 3.59%,–
Cc1ccccc1C(=O)Nc1ccc2c(c1)OCO2,inactive: 3.63%,–
O=C(NC1CCCC1)C(c1ccccc1)N(C(=O)c1ccno1)c1cccnc1 (stereo unspecified),–,"inconclusive [activator, single point]"
COc1ccc2c(c1)c(C(=O)N1CCN(C)CC1)c(C)n2-c1ccccc1,inactive: 31.4%,–
C=C(c1cccc2ccccc12)P(=O)(O)O,inactive: 10.8%,–
CC(C)CN1CC[C@@]2(CCCN(C(=O)c3csnn3)C2)C1,inactive: 11.8%,–
Cc1cc(C)c(OCC(=O)Nc2cccc(NC(=O)c3ccco3)c2)c(Br)c1,–,"inconclusive [activator, single point]"
COCCn1c(C(C)C)nc2oc3ccccc3c(=O)c2c1=O,–,"inconclusive [activator, single point]"

Compound,activation,Potency
CC(C)CCn1c(SCC(=O)c2ccccc2)nc2c1c(=O)[nH]c(=O)n2C,inactive: 6.43%,–
Cc1cc(C)n(CCOC(=O)c2sc3ccccc3c2Cl)n1,inactive: 28.2%,–
CCOc1ccc(-c2nc(CSCC(=O)N3CCN(c4cccc(OC)c4)CC3)c(C)o2)cc1,inactive: -4.86%,–
O=C(Cn1cnc2c(nnn2-c2ccc(F)cc2)c1=O)N1CCCC1,inactive: 12.1%,–
COCCCn1c(=S)[nH]c2ncccc2c1=O,inactive: 1.8%,–
CN(C)c1cc(O)c(C(=S)Nc2ccccc2)c(N(C)C)c1,–,"inconclusive [activator, single point]"
COc1cc(OC)c(-c2nnc(-c3ccc(OC)c(OC)c3OC)o2)cc1OC,inactive: -5.13%,–
N#Cc1ccccc1-c1ccc2ncnc(NC3CC3)c2c1,inactive: 13.5%,–
CCC(=O)N1CN(S(=O)(=O)c2ccc(C)cc2)CC1C (stereo unspecified),–,"inconclusive [activator, single point]"
CCOc1ccc(OCC)c2sc(C)nc12,inactive: 4.59%,–
CCN(CC)S(=O)(=O)c1ccc(-c2nnc(SCC(=O)Nc3nc(C)cs3)o2)cc1,–,"inconclusive [activator, partial curve]"
COc1ccc(NC2C=CS(=O)(=O)C2)c(OC)c1 (stereo unspecified),–,"inconclusive [activator, single point]"
CCOc1cc(C)nc(NCCc2ccc(OC)c(OC)c2)n1,inactive: 9.59%,–
CC(C)C(NC(=O)C1CCCCC1)C(=O)Nc1ccncc1 (stereo unspecified),–,"inconclusive [activator, partial curve]"
CC(C)C(=O)Nc1ccccc1N1CCN(C(=O)c2ccccc2)CC1,inactive: -3.5%,–
c1ccc2[nH]c(CSc3ncnc4c3oc3ccccc34)nc2c1,–,"inconclusive [activator, single point]"
CC12CCCCN1CCCc1c2[nH]c2ccccc12 (stereo unspecified),–,"inconclusive [activator, single point]"
Cc1cccc2cc(CN(CC3CCCO3)C(=O)c3cccnc3)c3nnnn3c12 (stereo unspecified),inactive: -8.85%,–
